Results on 88 compounds are retold here after PMC4336329 (PLoS ONE, 2015).

The whole screen tested about 310,000 compounds, of which about 2,200 (0.71%) showed an effect of 50% or more. The effect is printed as a negative number. Some of the results follow.

Chain of human ether-à-go-go-related gene (hERG) potassium channel (Q12809 whole entry, looked up): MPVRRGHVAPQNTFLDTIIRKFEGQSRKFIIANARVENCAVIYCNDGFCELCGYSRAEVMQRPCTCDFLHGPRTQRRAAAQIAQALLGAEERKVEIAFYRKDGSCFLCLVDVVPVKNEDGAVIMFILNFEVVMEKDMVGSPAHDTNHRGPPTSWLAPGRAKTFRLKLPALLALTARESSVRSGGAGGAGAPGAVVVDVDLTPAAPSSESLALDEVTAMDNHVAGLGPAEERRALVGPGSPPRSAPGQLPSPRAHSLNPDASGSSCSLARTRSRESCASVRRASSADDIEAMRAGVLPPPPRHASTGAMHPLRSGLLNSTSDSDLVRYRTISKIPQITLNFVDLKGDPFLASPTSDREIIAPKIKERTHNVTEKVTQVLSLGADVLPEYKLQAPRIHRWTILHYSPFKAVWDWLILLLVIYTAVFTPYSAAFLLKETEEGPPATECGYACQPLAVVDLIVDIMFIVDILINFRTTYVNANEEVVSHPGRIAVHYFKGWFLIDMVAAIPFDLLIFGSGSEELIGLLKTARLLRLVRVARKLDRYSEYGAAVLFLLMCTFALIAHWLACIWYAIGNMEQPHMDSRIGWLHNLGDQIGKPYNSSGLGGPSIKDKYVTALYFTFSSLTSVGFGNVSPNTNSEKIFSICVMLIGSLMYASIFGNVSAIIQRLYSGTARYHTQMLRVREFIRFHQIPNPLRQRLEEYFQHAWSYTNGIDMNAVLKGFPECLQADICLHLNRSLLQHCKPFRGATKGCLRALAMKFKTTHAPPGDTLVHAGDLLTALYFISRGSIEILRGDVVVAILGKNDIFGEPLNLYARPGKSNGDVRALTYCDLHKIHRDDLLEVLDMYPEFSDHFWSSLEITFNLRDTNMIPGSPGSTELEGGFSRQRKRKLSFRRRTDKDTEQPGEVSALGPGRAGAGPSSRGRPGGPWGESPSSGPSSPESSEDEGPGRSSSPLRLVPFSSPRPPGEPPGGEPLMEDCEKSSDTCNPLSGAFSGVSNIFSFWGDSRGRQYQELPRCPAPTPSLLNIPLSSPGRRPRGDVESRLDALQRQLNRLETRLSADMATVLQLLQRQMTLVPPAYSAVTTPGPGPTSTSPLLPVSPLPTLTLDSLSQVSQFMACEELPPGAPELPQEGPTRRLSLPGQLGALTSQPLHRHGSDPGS

The test concerns the target human ether-à-go-go-related gene (hERG) potassium channel (human, UniProt Q12809). The test is described as follows: primary screen, population patch clamp on CHO cells stably expressing hERG.
With `S=C(Nc1ccccc1)NC1CCN(Cc2ccccc2)CC1`, the “hERG current change (%, negative = inhibition) at 1uM” value is reported as -8.9%.
To `CCOC(=O)c1ccccc1NC(=O)COC(=O)C1CC(=O)N(CCc2ccccc2)C1` (stereo not shown) belongs 1.85%.
Take `CCOc1ccc2nc(NC(=O)c3ccc(C)o3)sc2c1`: the “hERG current change (%, negative = inhibition) at 1uM” value is 23.2%.
Consider `CC1CCN(CCCNC(=O)C2CCC(CNS(=O)(=O)c3ccccc3)CC2)CC1` (stereo not shown), for which the “hERG current change (%, negative = inhibition) at 1uM” value is 16.3%.
On to `COc1ccccc1C(=O)OCC(=O)NC1CCCC1`, for which the “hERG current change (%, negative = inhibition) at 1uM” value amounted to 5.17%.
On to `Brc1ccc(/C=N/N2CCN(C3c4ccccc4-c4ccccc43)CC2)s1`, for which the “hERG current change (%, negative = inhibition) at 1uM” value was 11.3%.
`CCOP(=O)(OCC)C(Nc1ccc(F)cc1)c1ccccc1` (stereo not shown): the “hERG current change (%, negative = inhibition) at 1uM” value is 9.43%.
With `COc1ccc(OC)c(NC(=O)CCN2CCCC(C)C2)c1.Cl` (stereo not shown) the figure was 3.46%.
For the compound `CC/C(Cc1ccccc1)=N/NC(=O)c1cccc(Br)c1`, the “hERG current change (%, negative = inhibition) at 1uM” value amounted to 17.1%.
With `O=C(CN1C(=O)NC2(CCCCC2)C1=O)NC1CCCc2ccccc21` (stereo not shown) the figure was 0.155%.
Take `CCNC(=S)N(CCc1c(C)[nH]c2ccc(C)cc12)Cc1cc(OC)c(OC)c(OC)c1`: the “hERG current change (%, negative = inhibition) at 1uM” value was found to be 6.34%.
Consider `CC(C)(C)C(=O)CC1(O)C(=O)N(Cc2ccccc2)c2ccccc21` (stereo not shown), for which the “hERG current change (%, negative = inhibition) at 1uM” value was 8.55%.
Consider `Cc1cc(C)cc(N(CC(=O)NC(C)(C)C)C(=O)CNC(=O)c2cccs2)c1`, for which the “hERG current change (%, negative = inhibition) at 1uM” value came to 11.2%.
For the compound `O=C(O)CCc1ccc(-c2ccccc2)n1-c1cccc(O)c1`, the “hERG current change (%, negative = inhibition) at 1uM” value was -0.825%.
For the compound `NC(N)=NS(=O)(=O)c1ccc(NC(=S)NC(=O)/C=C/c2ccccc2)cc1`, the “hERG current change (%, negative = inhibition) at 1uM” value came to 13.6%.
Consider `Cn1c(N2CCCC2)nc2c1c(=O)n(Cc1ccc(F)cc1)c(=O)n2C`, for which the “hERG current change (%, negative = inhibition) at 1uM” value amounted to 9.89%.
Consider `COC(=O)c1ccccc1C(=O)N1CCCC(C(=O)c2cc(F)ccc2F)C1` (stereo not shown), for which the “hERG current change (%, negative = inhibition) at 1uM” value was found to be 10%.
With `O=C(O)CN1C(=O)c2cccc3c(Br)ccc1c23`, the “hERG current change (%, negative = inhibition) at 1uM” value is 15.9%.
As for `Cn1c(=O)c(=O)n(C)c2cc(S(=O)(=O)CCC(=O)N3CCOCC3)ccc21`, the “hERG current change (%, negative = inhibition) at 1uM” value was determined as 7.72%.
For `O=C(COc1ccccc1)Nc1ccccc1NS(=O)(=O)c1cccs1`, the “hERG current change (%, negative = inhibition) at 1uM” value came out at 1.15%.
On to `CCc1c(SCCC(=O)O)nc2ccccc2c1C`, for which the “hERG current change (%, negative = inhibition) at 1uM” value amounted to 16.2%.
As to `CCO.CN1CC=C2C(C#N)=C(N)C(C#N)(C#N)[C@H](c3ccoc3)[C@H]2C1`, the “hERG current change (%, negative = inhibition) at 1uM” value amounted to 6.1%.
For `CN1CCN(CCC(=O)N/N=C/c2cc([N+](=O)[O-])ccc2OC(F)F)CC1`, the “hERG current change (%, negative = inhibition) at 1uM” value was 12.7%.
For `COc1ccccc1CCNC(=O)C(C)n1nc(C)c2c(C)n(-c3ccccc3)nc2c1=O` (stereo not shown), the “hERG current change (%, negative = inhibition) at 1uM” value is reported as -7.56%.
For the compound `CCSc1nc2sc3c(c2c(=O)n1-c1ccccc1)CCN(C(C)C)C3`, the “hERG current change (%, negative = inhibition) at 1uM” value stood at 11.9%.
To `COCC(=O)N1CCCC(C(=O)c2ccc(-c3ccccc3)cc2)C1` (stereo not shown) belongs 0.927%; to `O=C(CSc1nc2sc3c(c2c(=O)[nH]1)CCCC3)NCCO`, 9.66%.
Take `O=C(NCCCn1ccnc1)c1cc(-c2ccncc2)nc2ccccc12`: the “hERG current change (%, negative = inhibition) at 1uM” value is on record as -27.7%.
With `Cc1ccc(S(=O)(=O)NC(=O)NC(C)(C)C)cc1` the figure was -11.6%.
To `Cc1c(NC(=O)CS(=O)(=O)c2ccccc2)c(=O)n(-c2ccccc2)n1C` belongs 13.4%; to `CC(C)(C)Cc1nnc(NC(=O)c2cc(-c3ccccc3)nc3ccccc23)s1`, 10%; to `COc1ccc(-c2cc3c(=O)n(CC(=O)Nc4ccc(Cl)cc4)nc(C)n3n2)cc1`, 18.3%.
With `Cc1ccc(OCC(=O)N2CCN(C3CCC(c4ccccc4)CC3)CC2)cc1.O=C(O)C(=O)O` (stereo not shown) the figure was -14.7%; with `O=C(Nc1cc(Sc2ccccn2)cc([N+](=O)[O-])c1)c1ccc(Cl)cc1`, 5.55%; with `CCOC(=O)C1=C(CN2CCc3ccccc32)NC(=O)NC1c1cc(C)ccc1C` (stereo not shown), 2.87%.
Regarding `Cn1c(CNC(=O)c2cccs2)nnc1SCC(=O)Nc1ccc(Cl)cc1`, the “hERG current change (%, negative = inhibition) at 1uM” value is on record as 0.86%.
With `CC(C)CCOc1ccc(CO[C@@H]2[C@H]3OC(C)(C)O[C@H]3O[C@@H]2C(O)CO)cc1` (stereo partly shown) the figure was 12.2%; with `Cc1ccc(OCc2nnc(SCC(=O)NC3CCCCC3)n2C)cc1`, -13.5%.
For the compound `O=C(COC(=O)/C=C/c1ccc(OC(F)F)cc1)NC(=O)NCc1ccccc1`, the “hERG current change (%, negative = inhibition) at 1uM” value turned out to be 8.05%.
Regarding `NC(=O)Cc1c[nH]c2cccc(O)c12`, the “hERG current change (%, negative = inhibition) at 1uM” value is -2.1%.
As for `COCCNc1nc2ccccc2n2cnnc12`, the “hERG current change (%, negative = inhibition) at 1uM” value amounted to 16.2%.
For the compound `COc1ccc(NC(=O)Cc2coc3cc(C)ccc23)cc1S(=O)(=O)N1CCOCC1`, the “hERG current change (%, negative = inhibition) at 1uM” value is given as -3.64%.
As for `CC(C)Sc1oc(-c2ccco2)nc1S(=O)(=O)c1ccccc1`, the “hERG current change (%, negative = inhibition) at 1uM” value worked out at 10.1%.
Take `C=CCSc1nc(=O)n2ccc(C)cc2n1`: the “hERG current change (%, negative = inhibition) at 1uM” value is 7.84%.
As to `COc1cc(C2C3C(C)N(C)C(=O)N(C)C3N(C)C(=O)N2C)ccc1O` (stereo not shown), the “hERG current change (%, negative = inhibition) at 1uM” value stood at 15.4%.
Take `Cc1ccc(C2NC(=S)NC3=C2C(=O)CC(C)(C)C3)cc1` (stereo not shown): the “hERG current change (%, negative = inhibition) at 1uM” value is recorded as 14.3%.
Take `COc1cnc(-c2ccccn2)nc1N(C)c1ccccc1`: the “hERG current change (%, negative = inhibition) at 1uM” value was found to be 12.6%.
As for `COC(=O)/C(=C\Nc1ccc(Cl)cc1Cl)NC(=O)c1ccc(OC)cc1`, the “hERG current change (%, negative = inhibition) at 1uM” value is listed as 7.76%.
As for `CN(CCO)C(=O)c1cccc2c1-c1ccccc1C2=O`, the “hERG current change (%, negative = inhibition) at 1uM” value is 7.44%.
With `O=C(CNCc1ccccc1)Nc1ccccc1-c1ccccc1` the figure was -7.56%; with `OCCN1CCN(CC(O)C(F)(F)F)CC1` (stereo not shown), 6.56%.
In the case of `Cc1nnc(NC(=O)CSc2nnc(-c3ccco3)n2C(C)C)s1`, the “hERG current change (%, negative = inhibition) at 1uM” value is 10.5%.
With `COc1ccc(C(CNC(=O)Cc2cc(OC)c(OC)c(OC)c2)N2CCCC2)cc1` (stereo not shown) the figure was 5.69%; with `O=C(O)CCC(=O)NNC(=O)c1ccc(-c2ccccc2)cc1`, 9.22%; with `CC(C)(C)NC(=O)NC(=O)COC(=O)CNC(=O)c1cccc(F)c1`, 10.6%.
Turning to `O=C(COc1ccccc1)Nc1cc2c3c(c1)CC(=O)N3CCC2`, the “hERG current change (%, negative = inhibition) at 1uM” value was -4.17%.
To `Cc1ccc(NC(=O)CNCc2ccccc2)cc1Br.Cl` belongs -2.19%; to `CC(C)CC1(C(=O)O)NC(c2ccccc2O)C2C(=O)N(C(C)C)C(=O)C21` (stereo not shown), 16.2%.
On to `CC(CCn1cccn1)NC(=O)CCc1nnc(C2CCCCC2)o1` (stereo not shown), for which the “hERG current change (%, negative = inhibition) at 1uM” value is recorded as 11.5%.
Regarding `COc1cc2nc(CN3CCN(S(=O)(=O)c4c(F)cccc4F)CC3)[nH]c(=O)c2cc1OC`, the “hERG current change (%, negative = inhibition) at 1uM” value was -7.64%.
With `CCOc1ccc(NS(=O)(=O)c2cc3c4c(c2)C(C)C(=O)N4CCC3)cc1` (stereo not shown), the “hERG current change (%, negative = inhibition) at 1uM” value is reported as 13.7%.
Turning to `O=C(O)Cc1ccc(NC(=O)c2ccc(NC(=O)c3ccco3)cc2)cc1`, the “hERG current change (%, negative = inhibition) at 1uM” value is listed as 13%.
In the case of `CC(=O)Nc1nc(C)c(CCCOc2ccc([N+](=O)[O-])cc2)c(=O)[nH]1`, the “hERG current change (%, negative = inhibition) at 1uM” value is 6.01%.
With `O=C(NC(N1CCCC1)C(Cl)(Cl)Cl)c1ccccc1` (stereo not shown), the “hERG current change (%, negative = inhibition) at 1uM” value was 13.5%.
Turning to `Cc1ccc(NC(=O)CCNS(=O)(=O)c2ccc3c(c2)CCC(=O)N3)cc1C`, the “hERG current change (%, negative = inhibition) at 1uM” value stood at 26.8%.
With `COc1ccc(N=CC2=C(O)CCCC2=O)cc1` the figure was 3.77%.
Turning to `CCNc1nc(SC(C)C(=O)Nc2ccccc2)nc(N(C)C)n1` (stereo not shown), the “hERG current change (%, negative = inhibition) at 1uM” value is reported as -0.96%.
To `COC(=O)c1cccc(C23CC4(C2)[C@H](CN(Cc2ccc(-c5ccccc5)cc2)[C@@H]4c2ccccc2)C3c2ccc(C(F)(F)F)cc2)c1` (stereo partly shown) belongs 16%.
To `Cc1cccc(OCCOC(=O)C2CCN(S(=O)(=O)c3cccs3)CC2)c1` belongs 6.19%.
For `S=C(Nc1ccccc1)Nc1ccc(OCc2ccccc2)cc1`, the “hERG current change (%, negative = inhibition) at 1uM” value is reported as 3.02%.
With `COc1ccc(NC(=O)CN2CCC(C(N)=O)(N3CCCCC3)CC2)cc1` the figure was 3.3%.
In the case of `C[C@@H](NC(=O)c1nc[nH]c1C(=O)N1CCN(c2ccccc2)CC1)c1ccccc1`, the “hERG current change (%, negative = inhibition) at 1uM” value was 14.8%.
As for `CCN(CC)CCN(C)Cc1nc(C(c2ccccc2)c2ccccc2)no1`, the “hERG current change (%, negative = inhibition) at 1uM” value is -34.5%.
With `Cc1ccc(Cn2cc(C=O)c(-c3ccc(C)cc3)n2)cc1` the figure was 14.7%; with `COc1ccccc1CN(C)C(=O)c1ccc(COc2ccccc2)cc1`, 11.5%; with `Cc1nc2sc(-c3ccccc3)cc2c(=O)[nH]1`, 14.8%.
Consider `COc1ccccc1-c1ccc(=O)n(CC(=O)NCc2ccc3c(c2)OCO3)n1`, for which the “hERG current change (%, negative = inhibition) at 1uM” value worked out at 2.69%.
For the compound `CCN(CC)C(=S)SCC(=O)Nc1nc(=O)c2ccccc2s1`, the “hERG current change (%, negative = inhibition) at 1uM” value was determined as 4.18%.
As for `COC(=O)c1[nH]c2cccc(OC)c2c1NC(=O)CN(C)CC1OCCO1`, the “hERG current change (%, negative = inhibition) at 1uM” value is reported as -4.76%.
`Cc1nc(NCCc2ccc(F)cc2)c2nnn(Cc3ccccc3)c2n1`: the “hERG current change (%, negative = inhibition) at 1uM” value is on record as 7.92%.
For `CCOc1ccc(-n2nc3c(Cl)nnc(C)c3c2C)cc1`, the “hERG current change (%, negative = inhibition) at 1uM” value amounted to 7.75%.
Take `CCOc1ccc(OCCNCc2ccc(OC(C)C(=O)N(C)C)c(OCC)c2)cc1.O=C(O)C(=O)O` (stereo not shown): the “hERG current change (%, negative = inhibition) at 1uM” value came out at 6.58%.
As for `CCc1cccc2c(C(=O)CSc3nncn3-c3ccccc3OC)c[nH]c12`, the “hERG current change (%, negative = inhibition) at 1uM” value is given as -6.68%.
In the case of `CCOc1cc(C(=S)N2CCCC2)ccc1O`, the “hERG current change (%, negative = inhibition) at 1uM” value is 13.4%.
With `O=P(c1cccs1)(c1cccs1)c1cccs1` the figure was -4.99%; with `CCOc1ccccc1/C=N/NC(=O)Cc1csc(Nc2cccc(C(F)(F)F)c2)n1`, 0.968%; with `Cc1ccc(S(=O)(=O)N/N=C/c2ccc(OCC(=O)N3CCOCC3)cc2)cc1`, 14.7%.
In the case of `CC(C)N(Cc1nc(-c2ccccc2)no1)C(=O)CCCN1C(=O)c2ccccc2C1=O`, the “hERG current change (%, negative = inhibition) at 1uM” value is -6.95%.
